This note sets out measurements from PubChem BioAssay AID1362 (SRMLSC, 2008).

Structures are written as SMILES. This is one part of the list. The main result of the screen is listed elsewhere. These columns were measured beside it and carry no call. Most of these compounds were active or inconclusive in the main read-out, so they are no random draw.

The assay in a line: growth inhibition of WT strain, primary screen, mitochondrial fusion inhibitor project, WT and mutant strains, chemical genetic (AID 1362). Note: tested in S. cerevisiae. The following applies: mitochondrial fusion phenotypic screen, at 10 µM.
For the molecule `CC(C)(C)C(=O)NC(=S)NNC(=O)c1ccc(-c2ccccc2)cc1`, the inhibition was 27.6%. The result for `COc1ccc2nc(NC(=O)c3cccc(OCc4c(C)noc4C)c3)sc2c1` reads 15.8%. Regarding `COc1ccc(-n2c(-c3ccc(Br)cc3)nc(=S)c3c2CCCC3)cc1`, the inhibition is 23%. As for `CCN1/C(=C/c2sc(-c3ccccc3C)c[n+]2C)Sc2ccccc21`, the inhibition worked out at 73.2%. On to `CCN(CC)S(=O)(=O)c1cc(C(=O)Nc2cc(Cl)ccc2N2CCN(C)CC2)ccc1Cl`, for which the inhibition amounted to 40.3%. The same measure for `COc1ccc(Cc2nn[nH]n2)cc1`: -4%. The result for `COc1ccc(/C(C)=N/NC(=S)Nc2cc(C)ccc2C)cc1` reads 54.4%; that for `COc1cc(OC)c2c(c1)C(=O)c1cc(OC)cc(OC)c1C2=O`, 11%. The result for `Cc1ccc(C2=CC(C)(c3ccc(C)cc3)Nc3nc(C(F)(F)F)nn32)cc1` (stereo not drawn) reads -1.57%; that for `CSc1cccc(NC(=O)/C=C/c2cccc(Cl)c2)c1`, 72.5%; that for `Cc1ccc(OCc2n[nH]c(=S)n2C2CCCCC2)cc1`, 39.2%. For the molecule `O=[N+]([O-])c1ccc(Nc2c3ccccc3nc3ccccc23)cc1`, the inhibition came out at 24.7%. As to `Cc1ccc(NC(CNS(=O)(=O)c2ccc(Cl)cc2)c2ccccc2)cc1` (stereo not drawn), the inhibition was determined as 37.4%. The result for `Cn1c(CN2CCCCC2)nc2cc(NC(=O)c3ccc(Cl)cc3)ccc21` reads -22.7%; that for `Cc1nn(-c2ccccc2)c(Cl)c1/C=N/NS(=O)(=O)c1ccc(Br)cc1`, 28.4%. The result for `Cc1ccc(S(=O)(=O)N2CCN(c3ccnc4cc(Cl)ccc34)CC2)cc1C` reads 58.1%; that for `C/C(=N\NC(=S)NC1CCCCC1)c1ccc(OC(F)F)cc1OC(F)F`, 28%; that for `CCOC(=S)SCC(=O)Nc1nc(-c2ccc(Br)cc2)cs1`, 56.6%.

For the molecule `O=[N+]([O-])c1ccc(N/N=C2/CCCCC2c2ccccn2)cc1` (stereo not drawn), the inhibition is 65.4%. Turning to `COc1cccc(C2=CC(c3ccccc3)n3nnnc3N2)c1` (stereo not drawn), the inhibition is 2.51%. As for `Cc1cc(C)c(NC(=O)c2cc3c(nc4sccn43)s2)c(C)c1`, the inhibition turned out to be 69%. For `CCOC(=O)C1=C(C)N=C2SC(C(=O)OC)=CC(=O)N2C1c1ccc(OC)cc1` (stereo not drawn), the inhibition was 70.4%. The same measure for `Cc1cccc2sc(NC(=O)c3ccc(NS(=O)(=O)c4cccs4)cc3)nc12`: -18.8%; for `CC(C)(C)n1nnnc1C(c1cccnc1)N(Cc1ccccc1)Cc1cccs1` (stereo not drawn): 25.6%; for `O=C(Nc1cccc(C(F)(F)F)c1)c1cccnc1NCCc1ccccc1`: 64.3%. The same measure for `CC(C)N=c1scc(-c2cccs2)n1/N=C/c1ccc(O)c(O)c1O`: 29.2%; for `O=C(Nc1ccc(Cl)cn1)C1C(c2ccccc2)C1(Cl)Cl` (stereo not drawn): 51.8%. The result for `COc1ccc(C2c3c(ncn(Cc4ccco4)c3=N)Oc3ccc4ccccc4c32)cc1` (stereo not drawn) reads 4.07%. As for `Cc1ccccc1-c1nnc(SCc2ccc(F)cc2)o1`, the inhibition amounted to 32.6%. The result for `Cc1ccc(C)c(NC(=O)c2ccccc2NS(=O)(=O)c2cc([N+](=O)[O-])ccc2C)c1` reads 53.5%. The same measure for `O=C(OCc1nnc(-c2ccccc2)o1)C12CC3CC(CC(Br)(C3)C1)C2`: 13.7%; for `COc1ccc(C2=Nc3cccc4cccc(c34)N2)cc1`: -4.93%; for `CC1(c2ccccc2)CC(C)(C)N2C(=O)/C(=C3\SC(=S)NC3=O)c3cccc1c32` (stereo not drawn): 24.8%. The same measure for `COc1ccc(C(=O)Nc2ccc(Cl)cc2C(=O)NCCN2CCOCC2)cc1`: 11.8%; for `CC(C)(C)NC(=O)C(c1ccco1)N(C(=O)Cn1nnc(-c2ccc(F)cc2)n1)c1ccccc1F` (stereo not drawn): 36.5%.

`CCOc1ccccc1OCCCOc1ccc(C)cc1Br`: the inhibition is 39.4%. The same measure for `CN(C)CCCN1c2ccccc2CCc2ccc(Cl)cc21`: 38%; for `CCOC(=O)c1sc(NC(=O)CSc2n[nH]c(-c3ccc(Cl)cc3Cl)n2)c(C#N)c1C`: 38.8%. As for `Cc1ccc(C(=O)/C=C/c2cn(CN3CCN(C)CC3)c3ccccc23)cc1`, the inhibition is 78.2%. On to `COCCN1Cc2cccc(C(=O)NC3CCCCCC3)c2C1=O`, for which the inhibition stood at 60.8%. With `Brc1ccc(/C=N/Nc2ccc3ccccc3n2)cc1`, the inhibition was 32.7%.

With `Fc1ccc(NC(=S)Nc2ccccc2N2CCOCC2)cc1Cl`, the inhibition stood at 43%.

On to `CS(=O)(=O)N(CC(=O)NCc1ccc2c(c1)OCO2)c1ccc(Cl)cc1`, for which the inhibition was found to be 29.1%. For `CC1CCN(C(=O)/C=C/c2ccc(C(C)(C)C)cc2)CC1`, the inhibition is -12.7%. Consider `O=C(Nc1ccc(Cl)c(Cl)c1)OCc1cccnc1`, for which the inhibition turned out to be 78.7%.

Consider `O=C(Nc1ccccc1)Nc1ccc(C(=O)N2CCCC2)cc1`, for which the inhibition came out at 61.6%. As for `C=CCNCCCOc1ccc(Cl)cc1C(C)(C)C`, the inhibition is 73.2%. The same measure for `CCc1ccc(NC(=S)Nc2cccc3cnccc23)cc1`: 54.5%; for `CC(/C=C1\SC(=S)N(NC(=O)c2cccc(O)c2)C1=O)=C\c1ccccc1`: 82.3%. The same measure for `C=CCCCCCCCCc1nc(=S)[nH][nH]1`: 48.2%.

Regarding `COc1cccc(CC2(CO)CCCN(Cc3[nH]c4ccc(C)cc4c3C)C2)c1` (stereo not drawn), the inhibition was 64%. In the case of `CC1(C)C=Cc2c(c3c(c4c(=O)c(-c5ccc(O)cc5)coc24)OC(C)(C)CC3)O1`, the inhibition came to 34.4%. The same measure for `CCn1cc(C(=O)OCC(=O)OC2CC(C)CCC2C(C)C)c(=O)c2ccc(C)nc21` (stereo not drawn): 27.5%; for `Clc1ccc(OCCSCc2nc3ccccc3[nH]2)cc1`: 70.7%; for `Cc1cccc(Nc2nc(-c3cccs3)cs2)n1`: 45.5%. `O=C(OC1CCN(c2ncc(C(F)(F)F)cc2Cl)CC1)c1ccccc1`: the inhibition was 34%. The same measure for `CN(C)c1ccc(O)c2c1CC1CC3[C@@H](N(C)C)C(=O)C(C(N)=O)=C(O)[C@]3(O)C(=O)C1=C2O` (stereo partly drawn): 6.78%; for `CC(Cl)C(=O)NNc1cccc(Cl)n1` (stereo not drawn): -0.4%. Take `COc1cccc(NC(=O)CSc2nc3c(c(-c4ccco4)c2C#N)CCCC3)c1`: the inhibition was determined as 75.2%. The same measure for `S=C(NC1CCCCC1)N(CCc1ccccc1)CCc1ccccc1`: 3.44%. The result for `COc1ccc(C(=O)O/N=C(\C)c2ccccc2)cc1` reads 71.2%. The same measure for `Cc1ccc(-c2nc3cc(NS(=O)(=O)c4ccc(C)cc4)ccc3o2)cc1`: 49.2%; for `COc1ccc(-c2csc3nc(C)nc(N4CCC(C)CC4)c23)cc1OC`: 18.8%.

For `COc1ccc(C(=O)N(Cc2nc(-c3ccc(C)cc3)no2)C2CCCCC2)cc1OC`, the inhibition was 2.75%. The same measure for `Cc1ccccc1Nc1scc(-c2ccc(Cl)cc2)[n+]1-c1ccccc1C`: 7.22%; for `CCCc1nn(C)c(C(=O)Nc2ccc(C(C)(C)C)cc2)c1Cl`: 18.7%.

On to `COCCN(C(=S)Nc1cc(C)cc(C)c1)C(C)c1ccco1` (stereo not drawn), for which the inhibition was 30.1%. For `CCCCOc1c(Br)cc(/C=N/O)cc1OCC`, the inhibition turned out to be 13.8%.

For `Cc1nn(-c2ccccc2)c(N)c1N=Nc1ccc(Cl)cc1`, the inhibition was found to be 79.3%.

For the molecule `CCc1ccc(C(=O)/C=C/c2ccc([N+](=O)[O-])o2)cc1`, the inhibition was 41.1%. The result for `Cc1cccn2c(=O)c(C=NCc3ccco3)c(Nc3ccc(SC(F)F)cc3)nc12` reads 2.26%; that for `Cc1cc(Nc2ccccc2)c2c([N+](=O)[O-])cc(C)c(C)c2n1`, 4.1%. For `Cc1ccc(-c2nn(-c3ccccc3)cc2CSC(=N)N)cc1`, the inhibition was -0.33%.

Turning to `CCOC(=O)C1CCN(C(=O)Cc2ccc(OC)c(OC)c2)CC1`, the inhibition worked out at 1.18%.

With `O=[N+]([O-])c1ccc(NC(=S)NCCc2ccccc2)cc1`, the inhibition is 73.8%.

In the case of `O=C(Nc1ccc2snnc2c1)Nc1cccc2ccccc12`, the inhibition amounted to 70.2%. The same measure for `O=C(Oc1ccc2cc(Br)ccc2c1)N1CCCCCC1`: 19.4%. The same measure for `Cc1cc(Oc2ccc(C(C)(C)C)cc2)nc(N2CCOCC2)n1`: 16.8%; for `O=c1c2cn[nH]c2nc(SCc2ccccc2F)n1-c1ccc(Br)cc1`: 16.7%; for `NC(=O)c1ccsc1NC(=O)COC(=O)Cc1cccc2ccccc12`: 70.6%. The same measure for `Cc1cccc(C)c1OCCNC(=O)c1ccc2ccccc2n1`: 43.4%; for `CN1/C(=C\C(=S)Nc2ccccc2)C(C)(C)c2ccccc21`: 33.6%.

For the molecule `COc1ccc2c(c1)-c1nc(NC(=O)c3cccs3)sc1CC2`, the inhibition came to 32.4%. In the case of `CN(C)CCCN(C(=O)c1sc2ccccc2c1Cl)c1nc2ccc(F)cc2s1`, the inhibition is 44.9%. The result for `Cc1nn(CCc2nn[nH]n2)c2nc(-c3ccc(C4CCCCC4)cc3)cc(C(F)(F)F)c12` reads 61.1%. Regarding `CC1(c2ccc([N+](=O)[O-])cc2)CC(C)(C)N(C(=O)c2ccccc2)c2ccccc21` (stereo not drawn), the inhibition was found to be 21%. Take `COc1ccc2ccc3c(c2c1)N=C[C@]1(O3)N(C)c2ccccc2C1(C)C`: the inhibition was 6.69%. As to `CNc1ccccc1C(C)(C)c1cc(-c2cccc(OC)c2)no1`, the inhibition was found to be 18.7%. The result for `CCN(CC1COc2ccccc2O1)C(=S)NC1CC2CCC1C2` (stereo not drawn) reads 25.1%. On to `C=CCN=c1scc(-c2ccccc2)n1/N=C/c1ccccn1`, for which the inhibition was 34.9%. The result for `CCCCn1c(O)c(N=Nc2ccccn2)c2ccccc21` reads 51.2%. The result for `C=CCN1C(=O)/C(=C/c2ccc(OC(C)=O)c(OCC)c2[N+](=O)[O-])SC1=S` reads 95.4%; that for `O=C1c2ccccc2-c2onc3ccc(NCc4ccco4)c1c23`, 52.7%; that for `c1csc(C(c2nnnn2C2CCCC2)N2CCCC3(CCCCC3)C2)c1` (stereo not drawn), 2.63%. The same measure for `CCOc1ccc(NCc2nnc(SCc3ccc(Cl)cc3)n2-c2ccccc2)cc1`: -6.96%; for `Cc1ncsc1C(=O)N1N=C2/C(=C/c3ccccc3)CCCC2C1c1ccccc1` (stereo not drawn): 7.47%. With `CCCCCCCCn1cnc2c(N)c(C)c(C)cc21`, the inhibition is 52.8%. `CCCN1Cc2cccc(C(=O)NC(CC(=O)OCC)c3ccc(C)cc3)c2C1=O` (stereo not drawn): the inhibition was determined as 41.5%.

Consider `Nc1nc(CSc2ccc(Cl)cc2)nc(N2CCCCC2)n1`, for which the inhibition was determined as 42.8%. As to `O=C(CN1CCN(c2ccccn2)CC1)N1c2ccccc2Sc2ccc(C(F)(F)F)cc21`, the inhibition was -3.88%. The same measure for `O=C(Nn1c(-c2ccccc2)nc2ccccc2c1=O)C1CCC1`: -11.4%; for `CCCn1nc([N+](=O)[O-])c(C(C#N)c2nc3ccccc3s2)c(Cl)c1=O` (stereo not drawn): 67.2%.

As for `Cn1c(=O)c(NC2CCCCC2)c2c3c(cccc31)C(=O)c1ccccc1-2`, the inhibition was found to be 6.35%. The result for `CCN(CC)c1ccc(/C=N/NC(=S)NCc2ccco2)cc1` reads 15.4%.

As to `CC(=O)Nc1ccc(C(=O)OCc2ccc(Br)cc2)cc1`, the inhibition turned out to be 68.8%. With `CCc1nnc(NS(=O)(=O)c2ccc(N=Cc3c(C)[nH]n(-c4ccc(C)c(C)c4)c3=O)cc2)s1`, the inhibition is 57.9%. Turning to `COc1ccc(/C=N/N(Cc2ccccc2)c2ccccc2)cc1O`, the inhibition came to 21.1%.

For the molecule `CCNC(=S)NNC(=O)c1cc(-c2ccc(OC)cc2)nc2ccccc12`, the inhibition came out at 64.2%.

A word on the inhibition: it is the drop in the measured response relative to a control, in per cent.
